Several values for one entry are separate records, joined by “and”; a condition that tells them apart may be missing. Identical values can stand only once. This list was built around the results that the source calls inconclusive (neither active nor inactive); the mix of calls is not that of the screen. Entries that show only a call come without a potency. For some of these results: Potencies of inconclusive entries are doubtful fits and often do not repeat. Activity calls are given as the source filed them. Unless noted, calls follow the shape of the dose curve; as a rule, active = well fitted cell-killing curve with a large enough effect in the repeat runs; inconclusive = weak or mixed curves; inactive = no such curve, though single readings can be large or run the other way.
Target: Peroxisome proliferator-activated receptor delta (Homo sapiens) (UniProt Q03181)
Assay: qHTS assay to identify small molecule agonists of the peroxisome proliferator-activated receptor delta (PPARd) signaling pathway (AID 743212; calls by dose curve)
Conditions: HEK293H PPARd-UAS-bla, beta-lactamase FRET ratio, 17 h; activation: at 62.6 µM (top of the series) unless noted
Procedure, shortened: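 HEK293H UAS-bla reporter cells, human PPARd system; compounds delivered in DMSO after 5 h plating, then at 37 C. Beta-lactamase FRET read, 2 h RT substrate step.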
Tags tell the direction and shape of the fitted curve.

UniProt Q03181, sequence (Q03181 whole entry, looked up): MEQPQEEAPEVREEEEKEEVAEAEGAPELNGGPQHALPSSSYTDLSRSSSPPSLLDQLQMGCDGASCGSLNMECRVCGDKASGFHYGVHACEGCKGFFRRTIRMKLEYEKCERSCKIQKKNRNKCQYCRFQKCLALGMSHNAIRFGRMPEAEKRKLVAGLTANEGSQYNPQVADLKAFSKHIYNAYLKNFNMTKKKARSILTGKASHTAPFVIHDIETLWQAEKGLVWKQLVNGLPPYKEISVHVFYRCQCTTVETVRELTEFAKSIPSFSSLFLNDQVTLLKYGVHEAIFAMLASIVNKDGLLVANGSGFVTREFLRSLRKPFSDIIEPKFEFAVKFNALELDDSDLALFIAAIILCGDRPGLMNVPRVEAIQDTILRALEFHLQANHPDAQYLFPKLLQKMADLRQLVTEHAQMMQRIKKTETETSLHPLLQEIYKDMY

| Compound | Potency |
| --- | --- |
| CCOC(=O)c1ccc(O)c(O)c1 | inactive |
| CC(=O)/C(C)=C/C1C(C)=CCCC1(C)C (configuration not stated) | inactive |
| FC(F)(F)c1cccc(Cl)c1 | inactive |

System: not listed separately
Assay: qHTS assay to identify small molecule antagonists of the peroxisome proliferator-activated receptor delta (PPARd) signaling pathway - cell viability counter screen (AID 743213); also: nearly all actives have a fitted effect of over 50% in size; also: potency is read from the fitted curve at half-maximal effect
Conditions: PPARd-bla HEK293H viability, CellTiter-Glo luminescence, 17 h; viability change, negative = cytotoxic: at 62 µM (top of the series) unless noted
Procedure, shortened: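 In this counter screen, HEK293H cells carrying a UAS-beta-lactamase reporter are co-treated with test compounds and 300 nM L165041 (final) for 17 h at 37 C; cell viability is quantified by CellTiter-Glo luminescence.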

| Compound | Potency | viability change, negative = cytotoxic |
| --- | --- | --- |
| CC1(C)[C@@H](O[C@H]2O[C@H](C(=O)O)[C@@H](O)[C@H](O)[C@H]2O[C@@H]2O[C@H](C(=O)O)[C@@H](O)[C@H](O)[C@H]2O)CC[C@]2(C)[C@H]3C(=O)C=C4[C@@H]5C[C@@](C)(C(=O)O)CC[C@]5(C)CC[C@@]4(C)[C@]3(C)CC[C@@H]12 | inconclusive: 7.95 µM [cytotoxic, single point] |  |
| CCNc1nc(N)nc(Cl)n1 | inconclusive: 0.0049 µM [cytotoxic, full curve, poor fit] |  |
| CCN1CCC[C@H]1CNC(=O)c1c(O)c(Cl)cc(Cl)c1OC | inconclusive: 1.06 µM [cytotoxic, full curve, poor fit] |  |
| CCCCCCCCCCCCOC(C)=O | inactive |  |
| OCC(CO)(CO)CO | inactive and inconclusive: 12.3 µM [cytotoxic, single point] |  |
| CC1CC(OC(=O)C(O)c2ccccc2)CC(C)(C)N1C (configuration not stated) | inconclusive: 0.106 µM [cytotoxic, single point] |  |
| CCC(=O)OC |  | inconclusive: 0.546% [cytotoxic] [at 80.4 µM] |
| Cc1cc(NS(=O)(=O)c2ccc(N)cc2)no1 | inactive |  |
| Nc1ccc(S(N)(=O)=O)cc1 | inconclusive: 13.3 µM [cytotoxic, full curve] |  |
| CC(=O)/C(C)=C/C1C(C)=CCCC1(C)C (configuration not stated) | inactive |  |
| Cc1ncc(CO)c(CO)c1O | inactive |  |
| C/C=C(\C)C(=O)OC/C=C(\C)CCC=C(C)C | inconclusive: 0.49 µM [cytotoxic, single point] |  |

Target: Peroxisome proliferator-activated receptor delta (Homo sapiens) (UniProt Q03181)
Assay: qHTS assay to identify small molecule antagonists of the peroxisome proliferator-activated receptor delta (PPARd) signaling pathway (AID 743215; active = well fitted inhibition curve with a large enough effect in the signal ratio in the repeat runs, not every such curve was filed as active; inconclusive = weak or mixed curves, or effect the other way; inactive = no such curve, though single readings can be large or run the other way; the % refers to the signal ratio;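 also: cells stimulated with agonist L165041 at 300 nM final during compound exposure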)
Conditions: HEK293H PPARd-UAS-bla, beta-lactamase FRET ratio, antagonist, 17 h; ratio activity, negative = inhibition: at 62 µM (top of the series) unless noted
Procedure, shortened: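 Antagonist-mode beta-lactamase reporter screen: HEK293H cells with UAS-bla under PPARd control, stimulated by 300 nM L165041 (final) alongside test compound for 17 h at 37 C, then FRET fluorescence after 2 h substrate incubation.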

| Compound | Potency | ratio activity, negative = inhibition |
| --- | --- | --- |
| CCOCCOCCO | inactive |  |
| O[C@@H]1CO[C@H]2[C@@H]1OC[C@@H]2O | inactive |  |
| CCCCCCCCCCCCCCCC(=O)OC | inactive |  |
| CC1CC(OC(=O)C(O)c2ccccc2)CC(C)(C)N1C (configuration not stated) | inactive |  |
| O=C(O)c1cn(C2CC2)c2cc(N3CCNCC3)c(F)cc2c1=O | inactive |  |
| N#CCc1ccc(Cl)cc1Cl |  | inconclusive: -3.69% |
| CC(=O)CC(=O)Nc1ccc2[nH]c(=O)[nH]c2c1 | inactive |  |
